From the supplement of paper PMC12632987
In all, about 1,800 sequences were measured (“median log2 fold change of GCK-ALFA target abundance (FLAG IP / Myc IP barcode read proportion)”: median about 0.14, lowest 2% from about -0.84 on). The list shows a part of the results.

T1: TRAF2, Q12933
T1 chain: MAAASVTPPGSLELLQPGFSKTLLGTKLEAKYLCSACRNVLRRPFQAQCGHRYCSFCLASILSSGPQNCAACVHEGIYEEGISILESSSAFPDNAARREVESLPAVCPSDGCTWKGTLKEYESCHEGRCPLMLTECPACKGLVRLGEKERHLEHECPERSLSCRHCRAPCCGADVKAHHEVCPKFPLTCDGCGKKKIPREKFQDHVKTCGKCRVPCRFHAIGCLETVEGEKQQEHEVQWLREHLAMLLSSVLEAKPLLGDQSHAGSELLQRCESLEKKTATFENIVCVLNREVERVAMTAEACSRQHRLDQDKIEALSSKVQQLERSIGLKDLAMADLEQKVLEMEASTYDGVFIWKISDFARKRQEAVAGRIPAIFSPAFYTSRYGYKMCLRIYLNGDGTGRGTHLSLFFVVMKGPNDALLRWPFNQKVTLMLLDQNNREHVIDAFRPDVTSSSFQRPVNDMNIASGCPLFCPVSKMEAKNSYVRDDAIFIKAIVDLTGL

B1: traf2_out_13_95_1097 (protein)
chain: SREVAERIMEIADRMLDEVLAILEELLAKAKAAGKLVEEVTEALRLAETRSINEAIHLLRELAKEHPEFAAEYEAAIARIEELRRRAGREVARILREEEE
B2: traf2_out_14_149_1264 (protein)
chain: SKVEEVAEEILRLLKEVLEAAEEYIRTGTEEARERLFKLIKEAAEKMRELGEEIGVYFSSVSRLEHLASQRDLPPEELLARLKEILERAEVTAEFLKKEA
B3: traf2_out_17_162_1615 (protein)
chain: MSIEEILKELEEELERLEKELEELEKKLEKIDELSEEELTDLLVEASEARRKALEAIEKLKELKGEIDEEVYERLLKRFEEIAERFQRIANKFYEKLLEK
B4: traf2_out_20_3_2237 (protein)
chain: EELKKKLEEELEKAEKLLKKIEPKLDPKTAAKLKELLKKAKEYLEKDYTEALVYLSEAKAAALAAAEAARAAGDEETAALLEELADALNKAMHYAYLIIE
B5: traf2_out_13_95_1203 (protein)
chain: EEEKTEKIREVTNAIADKLLDFADKTAEEVEKKTGNEEYKKKVLKALNGSGINAAIEVLRELAKEDPEHKEIYLEAAEKLEEKRRQAGKEVAKKLKEIEE
B6: traf2_out_17_162_1637 (protein)
chain: AAIEATLAALKAELEELKKEKKELEEKAKKIETLSKEELSDLIVEASEVIRRARQLIQRLDALKDQIDPETYAELKAEAEEIIEEAQRIAQKFLDAYEAK
B7: traf2_out_6_156_2383 (protein)
chain: EKEKILEETKKKIEEYIKELSKAPESKKIKYINKIVGTVYKGLLKLRELGASLEELKEFVEEIKEYINKELEKYNIDESTKNLILAGINAVGEVALREAE
B8: traf2_out_20_3_2119 (protein)
chain: KELEEELKKELEEAKKLLKEAAKLADKETAKVLKELEKKLEKSEKLSYSDRLVVVSEIRRTVLLLREEAKAKGKKELAKVLDEAADKLNKAAGLLMKIIE
B9: traf2_out_17_162_1515 (protein)
chain: SALEEELAKLEKELKKIEKELKELKEKLKDLDKMSKEELTDLLVEASEARRRALELAERLEELKPEIGEERAGKLIAEARKLAEELQKIANKIYKKLEEK
B10: traf2_out_17_178_1674 (protein)
chain: DKAAKRAEISALTDELIDLTEDTGTKLLALAEAEGTLTPEELALLRAALRSSSANTLLAVAEKLAPKLKTKAEAEALLKDFKEKKKELSKKIAEAYKEYE
B11: traf2_out_3_89_2308 (protein)
chain: MEERKKTIEEMEKQMEAYVKGFEKSAKFVAKQMLADGMSLDTLRGVLEAAKSALLEVLRETAKERGLSEEEIEKLLKKAEEELNKVVDEVVADAAAKRAA
B12: traf2_out_8_15_2547 (protein)
chain: EEEEAAERRRAKILEATDGDPASILNLARGYVRGAEIALERMKKSGEKDLYYGVVEALARDARITLDLLRELDPSLAPEADALDARIDAILAEAEKLKAE
B13: traf2_out_6_169_2481 (protein)
chain: MEEERLEKEAERHLKTAEELYEIAETIYKQVKENNDLENLDNYILAMETLLNAMERHYELAIEKLKELGKEEEAEEVEKKREERKKKMEEMIEEIKKLKE
B14: traf2_out_17_178_1685 (protein)
chain: TKEEQRAKISELTDKLIDLTEETGTRLLARARAEGTLSPEELAALEAARRAGSNRTFLALAERAAPRLRSAEEAAALLAEFKERARKLEKEIAAAYEKYE
B15: traf2_out_11_169_859 (protein)
chain: KEEEFNRKLIDFALKVEDEAKKKLKEFALELAKKYGLNVEEVKKIFEENKNSSLSKIASNLIKYFKEKGKEEAAEEILKKHEELKEEINKKVSAKIKELE
B16: traf2_out_20_3_2077 (protein)
chain: EELLEKLKKEIDEALKLLKEAAKLADPETAKRLKALIEKLKASEELSIDDRLVVISEVRREVRRLAEEARARGDEELAKVLEEAADKLNKAAQLAYKILQ
B17: traf2_out_17_162_1620 (protein)
chain: MSIEEELEELEEELEELEKKLKELEEKLKNIDKLSKEELTDLLVEASEARRRALEAIERLDELKGEIDPETYEELKARFTELAEKFQKIANKLYKKLLEL
B18: traf2_out_20_3_2247 (protein)
chain: EELREKAKEELEKIKELLKKAAPLLPKEDAAKAEKLLKEAEKAFETDLTDALVYVSELRRLALERAQAALAAGDEETAKLLKELAEAAQRLAQYLYKLIE
B19: traf2_out_18_117_1795 (protein)
chain: SEREEIIEELEELAERLGKAASELGKAVLDNWEKLTPEEKSEAMDVLADLSAVRRRAQELIHKIKTENIPVEEARKELEELKKEAEAALAAAEAKIARIK
B20: traf2_out_14_166_1275 (protein)
chain: MSPEEIERIRKIVDELEPLTDAAVARLEAILAANADKLTPEQLARVRALLDLARRNIGSSAINAIREIAAIFAAAGLAEAAAAARALADELEAKLKELNK
B21: traf2_out_13_95_1058 (protein)
chain: SRELAEKINELADEAEEEILAILDEAAEELADDPEAVAVLDEARRLALTRGWTAALALLREAAAARPEHRDAFLATIERIEEVRRRLGKKVAELIKKEKE
B22: traf2_out_11_169_835 (protein)
chain: EEAAKNRAITDFALELNDEGKEKLREFARKLAKEAGLDVAEVDKIFEANKGKSLSAIAGALIAYFKSQGKEDVAKAVEEKYEELKEEINKKATAFIKSLE
B23: traf2_out_16_104_1400 (protein)
chain: EAAKQAEFEAIIAELEAIAEELQKIANEIYKLYEKADPEKKVELSDLLVEASEARRFALEAAERARRALEEGGDLEEARKALKEAREKFERVKKRVEELK
B24: traf2_out_18_157_1817 (protein)
chain: SHEEELLELAKKAQEVVDLGDKLVEESEGKSLEEIEKLLLETVEEMVKLLESVPKETRYHILTSTVRRTVEKLKEKRGISEEEAKELYEKALKKIEELLK
B25: traf2_out_18_3_1896 (protein)
chain: SSEELKEISEKIDEIIDEVTAKAREVLDRLAAEHPEVAAEVDALRADLEAGAGPFGILEALAELAKKAGDEELAKEIEEFLKEKKKELQELVDKYLELRK
B26: traf2_out_18_167_1855 (protein)
chain: EEELKKKLEEATDELVKLSEVKRLARTALQLLETDPAAFPAAKAALIAALRAHGELAHLADRLEAAPPEEQPAVLEEIVEEAQRLANEKYKEIEELRKKL
B27: traf2_out_15_48_1346 (protein)
chain: DIEKEQKIASEIADDSDKLKDKVAKELEELQKKANPEEAAILDELIAAIRSGASLRTVRGLLLQAQPKFSPETAAKLKALAEEIDELIRENSKRYNEVLK
B28: traf2_out_16_171_1435 (protein)
chain: SMEEREKELKEEIEEDAERLIERMETAVEMTPLISKETGLSVEQIAKGFRSTMTDRIEALRKHYLEKAKDMSEEVKKFIEEKFEEVEKALEKAVKEILEK
B29: traf2_out_13_95_1084 (protein)
chain: SEETNKKIMEIADEMLDKSLKILTELLEKVKDDPEMKKKVEEAKYLAEHKGINAAIHLLEELSKENEEYKELLDEAIEKLKKLKREAGRKVAELLKEEEE

Target: T1, TRAF2, Q12933
Assay: median log2 fold change of GCK-ALFA target abundance (FLAG IP / Myc IP barcode read proportion) (log2 ratio); each designed protein is fused to an ALFA-tag nanobody in HEK293 cells to bring the named protein to FLAG-tagged glucokinase (GCK); Myc marks an untargeted standard; higher = target protein stabilised (more abundant)
Conditions: target protein: 3xFLAG-MCP-GCK-ALFA reporter; HEK293 landing pad (RPLP)
How it was run: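 Sequencing of reverse-transcribed, amplified circular RNA barcodes from anti-FLAG and anti-Myc immunoprecipitates provided the readout for an ALFA-nanobody-fused binder library recombined into HEK293 landing-pad cells. Those cells were induced with 2 μg mL^−1 doxycycline, transfected with a plasmid expressing a FLAG-tagged target and a Myc-tagged standard, and lysed after 48 h. Target abundance is the per-binder median log2 ratio of FLAG to Myc barcode read proportions. Only barcodes at a proportion of ≥10^−7 in both replicates and binders with ≥3 barcodes per replicate were kept, with a 10^−6 pseudocount added before the two replicates were pooled.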

Row | Binder | median log2 fold change
1 | B1 | -0.695
2 | B2 | 0.203
3 | B3 | 0.252
4 | B4 | 0.187
5 | B5 | -0.0161
6 | B6 | 0.269
7 | B7 | -0.126
8 | B8 | -0.0522
9 | B9 | 0.222
10 | B10 | 0.0887
11 | B11 | -0.103
12 | B12 | -0.173
13 | B13 | 0.245
14 | B14 | 0.171
15 | B15 | 0.148
16 | B16 | 0.162
17 | B17 | -0.461
18 | B18 | 0.336
19 | B19 | 0.171
20 | B20 | 0.268
21 | B21 | -0.24
22 | B22 | 0.267
23 | B23 | 0.165
24 | B24 | 0.178
25 | B25 | -0.17
26 | B26 | 0.405
27 | B27 | 0.203
28 | B28 | 0.26
29 | B29 | 0.0732
